Out of some 420,000 compounds screened, about 64,000 (15%) were called active. The inconclusive results got no clear call from the source; some entries with a clear call stand among them for comparison. The call rests on the fitted dose curve; in most records, active means well fitted inhibition curve with a large enough effect; inconclusive means small, poorly fitted or top-dose-only effect; inactive means flat fitted curve, though single readings scatter. No potency is given beside an inconclusive call; the fits are too rough.
assay: qHTS for Inhibitors of human tyrosyl-DNA phosphodiesterase 1 (TDP1): qHTS in cells in absence of CPT; settings: DT40 Tdp1-/- hTDP1 cells, no CPT, ATP luminescence, 48 h; activity change, negative = growth inhibition: at 46.2 µM (top of the series); further: nearly all actives have a fitted effect of over 55% in size
In short: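 Seeded 400 DT40-hTDP1 cells/well (vehicle DMSO, no 20 nM CPT); pinned compounds; ≥48 hr at 37 °C; CellTiter-Glo luminescence as viability measure.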
On the % scale 0 is the no-effect control and ±100 the full control effect; potency means the concentration at half of the fitted maximal effect; tags describe the fitted curve by direction and shape.

| SMILES | Potency | activity change, negative = growth inhibition |
| --- | --- | --- |
| O=C(Nc1cc2c3c(c1)CC(=O)N3CCC2)c1ccc(Br)o1 | inconclusive [inhibitor, single point] | – |
| Cc1nc(-c2cc(C#N)c(Sc3cccc(C(F)(F)F)c3)nc2C)cs1 | inconclusive [inhibitor, single point] | – |
| CC(=O)c1ccc(S(=O)(=O)NCCC(=O)NCCc2c[nH]c3ccccc23)cc1 | inconclusive [inhibitor, single point] | – |
| CCOCCCN(CCC#N)C(=O)C1CCN(S(=O)(=O)c2ccc(-n3cnnn3)cc2)CC1 | – | inactive: 5.01% |
| c1ccc(Nc2ncnc3ccc(-c4cccnc4)cc23)cc1 | active: 18.4 µM | – |
| O=C(CSc1nnc(-c2ccco2)n1Cc1ccccc1)OC1CCCCC1 | inconclusive [inhibitor, single point] | – |
| CCc1ccc2[nH]c(=O)c(CN(Cc3nnnn3C3CCCC3)C3CCCCC3)cc2c1 | inconclusive [inhibitor, single point] | – |
| N#CCCCc1cn(-c2nc3ccccc3s2)nn1 | – | inactive: -18.1% |
| CCCS(=O)(=O)N1CCCC(C(=O)Nc2ccc3c(c2)CCC3)C1 (stereo not drawn) | – | inactive: -13.5% |
| COc1ccc(OC)c(NC(=O)[C@H]2CC=CC[C@H]2C(=O)O)c1 | inconclusive [inhibitor, single point] | – |
| CCN(C)C1CN(Cc2cn(Cc3ccc(C(F)(F)F)cc3)nn2)S(=O)(=O)C1 (stereo not drawn) | – | inactive: -2.27% |
| Cc1nc(-c2ccc(Cl)cc2)sc1CCNC(=O)c1ccco1 | active: 18.4 µM | – |
| Cc1ccc(-n2c(=O)c3c4c(sc3n(Cc3ccccc3F)c2=O)CCC4)cc1C | – | inactive: -3.21% |
| Cn1cnc2cc(NCc3ccc(Cl)cc3)ccc21 | inconclusive [inhibitor, single point] | – |
| O=C(CCN1CCCC1=O)NC1CCCc2c1cnn2-c1ccc(F)cc1F (stereo not drawn) | – | inactive: -22.9% |
| Cc1coc2cc3oc(=O)c(CC(=O)NCc4ccc(F)cc4)c(C)c3cc12 | active: 5.8 µM | – |
| CSc1ncc(CN2CCC(C(=O)Nc3cccc(-c4cscn4)c3)CC2)cn1 | inconclusive [inhibitor, single point] | – |
| Cc1ccc(O)c(-c2ccnc3cc(-c4ccc(Cl)cc4)nn23)c1 | inconclusive [inhibitor, partial curve, poor fit] | – |
| COc1ccc(C(=O)Nc2ccc3nc(SCc4ccc(C)cc4)sc3c2)cc1 | inconclusive [inhibitor, partial curve] | – |
| CC(C)OC(=O)c1c(F)c(F)c(N2CCOCC2)c(F)c1F | – | inactive: -11.8% |
| CCOC(=O)C1CCN(c2c(C(=O)c3ccccc3)cnc3ccc(CC)cc23)CC1 | active: 18.4 µM | – |
| CC1(C)C2CCC1(C)C(OC(=O)CCn1ccnc1)C2 (stereo not drawn) | inconclusive [inhibitor, partial curve, poor fit] | – |
| O=C(CNC(=O)c1ccco1)OC(C(=O)c1ccccc1)c1ccccc1 (stereo not drawn) | inconclusive [inhibitor, single point] | – |
| COc1ccc(-c2sc3cc(OC)c(OC)cc3c2C#CCCO)cc1 | inconclusive [inhibitor, single point] | – |
| COc1ccccc1C(=O)N1CCN(c2cccc(Cl)c2)CC1 | active: 1.64 µM | – |

| SMILES | Potency | activity change, negative = growth inhibition |
| --- | --- | --- |
| CC(=O)N1CCCN(C(=O)c2ccc3nc(Cc4cccc(Cl)c4)oc3c2)CC1 | inconclusive [inhibitor, partial curve] | – |
| Cn1c(=O)c2c(nc(Oc3ccccc3N)n2C)n(C)c1=O | inconclusive [inhibitor, single point] | – |
| O=C(NCc1ccccc1Cl)c1nnc(CS(=O)(=O)c2ccccc2)o1 | – | inactive: -23% |
| COc1ccccc1OCCCn1c(C2CC(=O)N(c3ccccc3Cl)C2)nc2ccccc21 (stereo not drawn) | active: 6.51 µM | – |
| Cc1ccc(Cn2c(=O)n(Cc3nc(-c4ccccc4)no3)c(=O)c3cc4c(cc32)OCO4)cc1 | – | inactive: 10.7% |
| CC(=O)c1cccc(NC(=O)CCc2c(C)nc3c(-c4ccc(F)cc4)c(C)nn3c2C)c1 | inconclusive [inhibitor, partial curve, poor fit] | – |
| Cc1ccc(S(=O)(=O)N2CCC(N3CCN(C)CC3)CC2)cc1Cl | inconclusive [inhibitor, single point] | – |
| Cc1ccc(NC(=O)CN(C)C(=O)COc2cccc3ccc(C)nc23)cc1 | – | inactive: -18% |
| O=S(=O)(/C=C/c1ccccc1)NC1CCCCCC1 | inconclusive [inhibitor, single point] | – |
| CC1(C)Cc2c(c(N3CCOCC3)nc3sc4c(=O)[nH]cnc4c23)CS1 | inconclusive [inhibitor, single point] | – |
| C[C@@H]1CN([C@@H](C)CO)C(=O)c2cc(-c3cccnc3)cnc2O[C@H]1CN(C)C(=O)c1cccc(F)c1 | – | inactive: 5.97% |
| CCOC1=C2CN(S(=O)(=O)c3ccc(C)cc3)C(c3ccc(C)cc3)CC2N(S(=O)(=O)c2ccc(C)cc2)C(c2ccccc2)C1 (stereo not drawn) | – | inactive: -28.5% |
| CSc1cccc(NC(=O)CN(c2ccc(C)cc2C)S(C)(=O)=O)c1 | inconclusive [inhibitor, single point] | – |
| COc1ccc(CC(N)c2csc(NC(=O)c3cc(C(C)(C)C)oc3C)n2)cc1 (stereo not drawn) | inconclusive [inhibitor, single point] | – |
| O=C(Nc1ccc(F)cc1)c1ccc(Br)c(S(=O)(=O)N2CCOCC2)c1 | inconclusive [inhibitor, single point] | – |
| CC(C)(C)NC(=O)C(c1ccncc1)n1c(=O)c(-c2ccco2)nc2ccccc21 (stereo not drawn) | – | inactive: -7.34% |
| O=C(Nc1cn(-c2ccccc2)nc1-c1cccs1)c1ccco1 | inconclusive [inhibitor, single point] | – |
| COc1cc(NC(=O)c2ccccc2F)c(OC)cc1NC(=O)CN1CCOCC1 | inconclusive [inhibitor, single point] | – |
| COc1ccc(C(=O)NCC2Cc3cccc(-c4cncnc4)c3O2)c(OC)c1OC (stereo not drawn) | – | inconclusive: -37.4% [inhibitor] |
| CCN(CC)CC(O)Cn1c(C)c(-c2ccccc2)c2cc([N+](=O)[O-])ccc21 (stereo not drawn) | active: 9.2 µM | – |
| COC(=O)c1ccc2nc(-c3ccc(F)cc3)c(Cc3ccc(OC)cc3C)n2c1 | inconclusive [inhibitor, single point] | – |
| CC[C@]1(c2ncc[nH]2)Cc2ccccc2O1 | active: 23.7 µM | – |
| Cc1ccc(C(=O)N/C(=C\c2cccs2)C(=O)N2CCN(C)CC2)cc1C | – | inactive: 4.81% |
| Cc1cccc(Cl)c1OCCCn1ccnc1 | inconclusive [inhibitor, partial curve] | – |
| Cc1ccccc1-n1nc2c(c1NC(=O)c1ccc(S(=O)(=O)N(C)C)cc1)CSC2 | inconclusive [inhibitor, partial curve] | – |

| SMILES | Potency | activity change, negative = growth inhibition |
| --- | --- | --- |
| CCc1ccc(CN(C)C(=O)c2cc(COc3cncc(Cl)c3)on2)cc1 | inconclusive [inhibitor, single point] | – |
| COc1ccccc1CC(=O)NO | – | inactive: -15.1% |
| c1cc(SC2CCCCC2)cc(-c2nc3cnccn3c2NC2CCCCC2)c1 | inconclusive [inhibitor, partial curve, poor fit] | – |
| Cc1ccc(Nc2nc(C)c3c(n2)CC(C)CC3=O)c(C)c1 (stereo not drawn) | inconclusive [inhibitor, single point] | – |
| O=C(Nc1ccccc1)N1CCN(C(=O)c2nsc3ccccc23)CC1 | – | inactive: -21.4% |
| COc1ccccc1C(=O)COC(=O)C(NC(=O)Cc1ccccc1)C(C)C (stereo not drawn) | inconclusive [inhibitor, single point] | – |
| COC(=O)c1c(C)[nH]c(C(=O)CN2C(=O)C3CC=CCC3C2=O)c1C (stereo not drawn) | inconclusive [inhibitor, single point] | – |
| O=C(N/N=C1\CCCc2ccccc21)C(O)c1ccccc1 (stereo not drawn) | – | inactive: -10.8% |
| CC(C)NC(=O)Nc1cccc(Cl)c1 | – | inactive: -19.9% |
| COc1ccc(-n2nc3c(N4CCC(C(=O)NCCc5ccco5)CC4)nnc(C)c3c2C)cc1 | inconclusive [inhibitor, single point] | – |
| CCOc1ccc(C(=O)NCCN2CCCC2)cc1 | inconclusive [inhibitor, single point] | – |
| O=C(CSc1n[nH]c(-c2cccnc2)n1)OC1CCCCC1 | inconclusive [inhibitor, single point] | – |
| CC1CCC2(CC1)NC(=O)N(CC(=O)N1CCN(c3ccccc3)CC1)C2=O (stereo not drawn) | – | inactive: -0.169% |
| CCNc1nnc(SCC(=O)c2cc(C)n(C3CC3)c2C)s1 | inconclusive [inhibitor, single point] | – |
| Cc1ccc(CCNC(=O)CCn2c(=O)c3cccn3c3ccc(F)cc32)cc1 | active: 18.4 µM | – |
| CCOC(=O)c1[nH]c(C)c(C(=O)Nc2ccc3c(c2)CCC3)c1C | inconclusive [inhibitor, single point] | – |
| COCCCNC(=O)C1CC(=O)N(CCc2ccccc2)C1 (stereo not drawn) | – | inactive: -0.222% |
| Cc1c(C(=O)N2CCCC2)c(S(=O)(=O)NCC(C)c2ccccc2)c(C)n1C (stereo not drawn) | – | inactive: -3.35% |
| Cc1cc2cc3c(N)[nH]nc3nc2cc1C | – | inactive: -21.4% |
| CCCc1nc2sc3c(N4CCCCC4)ncnc3c2c2c1CCCC2 | – | inactive: 0.947% |
| Cc1cc(=O)n2nc(N3CCC(C(=O)Nc4ccc(C(C)C)cc4)CC3)sc2n1 | inconclusive [inhibitor, single point] | – |
| CCOC(=O)CNC(=O)CN1CCCN(S(=O)(=O)c2ccc(Br)s2)CC1 | inconclusive [inhibitor, single point] | – |
| COc1cc(NS(=O)(=O)c2ccc(-n3cccn3)cc2)cc(OC)c1 | active: 11.6 µM | – |

Reference: PubChem BioAssay AID686978 (National Center for Advancing Translational Sciences (NCATS), 2013)
